In the supplement of paper PMC12297408:
Counter-ions that a name gives are not always drawn. Among all 1,300 compounds or so, about 40 (3%) showed activity. The list shows a part of the results.

Tested on: Plasmodium falciparum NF54/iGP1_RE9H ulg8 stage V gametocytes
Assay: gametocyte viability (luciferase signal relative to DMSO control) (% of DMSO control); higher = less gametocytocidal activity, active = 50 or less
Conditions: exposure time: 72 h
How it was run: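 NF54/iGP1_RE9Hulg8 stage V gametocytes (day 12; ~2.5% gametocytemia, 3% hematocrit) were incubated with compounds at 10 µM or 1 µM final, in one well each, for 72 h at 37 °C in medium with 0.5% Albumax II. Luminescence after D-luciferin addition was read on an IVIS Lumina II. Viability refers to the mean of plate DMSO vehicle wells.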

| SMILES | gametocyte viability (concentration: 1 µM) | gametocyte viability (concentration: 10 µM) |
| --- | --- | --- |
| CC(C)N1CCN(c2ccc(OCC3COC(Cn4cncn4)(c4ccc(Cl)cc4Cl)O3)cc2)CC1 (configuration not stated) [Terconazole] | inactive: 80.8 | inactive: 86.3 |
| COc1ccc2[nH]cc(CCNC(C)=O)c2c1 [Melatonin] | inactive: 80.2 | inactive: 85.4 |
| NC[C@H]1O[C@H](O[C@H]2[C@H](O[C@@H]3O[C@H](CO)[C@@H](O)[C@H]3O)[C@@H](O)[C@H](N)C[C@@H]2N)[C@H](N)[C@@H](O)[C@@H]1O [Ribostamycin sulfate salt] | inactive: 87 | inactive: 85.5 |
| Cc1ccc(C(=O)c2cc(O)c(O)c([N+](=O)[O-])c2)cc1 [Tolcapone] | inactive: 83.2 | inactive: 87.4 |
| COc1ccc(C(=O)NCc2cccnc2)cc1C(=O)NCc1cccnc1 [Picotamide monohydrate] | inactive: 80.6 | inactive: 75.3 |
| Nc1nc(=O)c2nc(CNc3ccc(C(=O)N[C@@H](CCC(=O)O)C(=O)O)cc3)cnc2[nH]1 [Folic acid] | inactive: 94.9 | inactive: 98.6 |
| CC(=O)N[C@@H](CC(C)C)C(=O)O [N-Acetyl-L-leucine] | inactive: 87.4 | inactive: 95.1 |
| CC[C@H]1OC(=O)[C@H](C)[C@@H](O[C@H]2C[C@@](C)(OC)[C@@H](O)[C@H](C)O2)[C@H](C)[C@@H](O[C@@H]2O[C@H](C)C[C@H](N(C)C)[C@H]2O)[C@](C)(O)C[C@@H](C)/C(=N\OCOCCOC)[C@H](C)[C@@H](O)[C@]1(C)O [Roxithromycin] | inactive: 84 | inactive: 80.6 |
| Nc1nc(F)nc2c1ncn2[C@@H]1O[C@H](CO)[C@@H](O)[C@@H]1O [Fludarabine] | inactive: 80.9 | inactive: 77.7 |
| O=C1CN2Cc3c(ccc(Cl)c3Cl)N=C2N1 [Anagrelide] | inactive: 81.9 | inactive: 83.4 |
| Nc1nc(=S)c2ncn([C@@H]3O[C@H](CO)[C@@H](O)[C@H]3O)c2[nH]1 [Thioguanosine] | inactive: 99.7 | inactive: 91.3 |
| CC(C)NCC(O)COc1ccc(COCCOC(C)C)cc1 (configuration not stated) [Bisoprolol fumarate] | inactive: 83.7 | inactive: 86.5 |
| CC(C)C(=O)OCC(=O)[C@@]12O[C@H](C3CCCCC3)O[C@@H]1C[C@H]1[C@@H]3CCC4=CC(=O)C=C[C@]4(C)[C@H]3[C@@H](O)C[C@@]12C [Ciclesonide] | inactive: 86.7 | inactive: 94.8 |
| O=C(Cn1ccnc1[N+](=O)[O-])NCCO [Etanidazole] | inactive: 91.4 | inactive: 95.8 |
| Clc1ccc(C(Cn2ccnc2)OCc2c(Cl)cccc2Cl)c(Cl)c1 (configuration not stated) [Isoconazole] | inactive: 91.2 | inactive: 90.9 |
| NC(=O)N1c2ccccc2C=Cc2ccccc21 [Carbamazepine] | inactive: 92 | inactive: 100 |
| CN(C)CCN(Cc1cccs1)c1ccccn1 [Methapyrilene hydrochloride] | inactive: 80.7 | inactive: 80.6 |
| COc1c(O[C@@H]2O[C@H](CO)[C@@H](O)[C@H](O)[C@H]2O)cc2c(c1OC)-c1ccc(SC)c(=O)cc1[C@@H](NC(C)=O)CC2 [Thiocolchicoside] | inactive: 94.6 | inactive: 95.3 |

| SMILES | gametocyte viability (concentration: 1 µM) | gametocyte viability (concentration: 10 µM) |
| --- | --- | --- |
| CCCN[C@H]1CCc2nc(N)sc2C1 [Pramipexole] | inactive: 86 | inactive: 90.5 |
| CCOC(=O)c1ccc(OC(=O)CCCCCNC(=N)N)cc1 [Gabexate mesilate] | inactive: 88.8 | inactive: 92 |
| Cc1cc(=O)oc2cc(O)ccc12 [Hymecromone] | inactive: 88 | inactive: 83.9 |
| COc1ccc(CN(CCN(C)C)c2ccccn2)cc1 [Pyrilamine maleate] | inactive: 90.9 | inactive: 100 |
| CCCNC(C)C(=O)Nc1ccccc1C (configuration not stated) [Prilocaine hydrochloride] | inactive: 94.6 | inactive: 89.1 |
| CC(COc1ccccc1)N(CCCl)Cc1ccccc1 (configuration not stated) [Phenoxybenzamine hydrochloride] | inactive: 99.6 | inactive: 93.1 |
| CC(=O)c1ccc(S(=O)(=O)NC(=O)NC2CCCCC2)cc1 [Acetohexamide] | inactive: 86.3 | inactive: 90.2 |
| Cc1scc2c1N(C(=O)CN1CCN(C)CC1)c1ccccc1NC2=O [Telenzepine dihydrochloride] | inactive: 97.8 | inactive: 96.3 |
| Cn1c(=O)c2nc[nH]c2n(C)c1=O [Theophylline monohydrate] | inactive: 90.1 | inactive: 97 |
| c1ccc(C2CN3CCSC3=N2)cc1 (configuration not stated) [Tetramisole hydrochloride] | inactive: 83.5 | inactive: 92.2 |
| NCCCC[C@H](N[C@@H](CCc1ccccc1)C(=O)O)C(=O)N1CCC[C@H]1C(=O)O [Lisinopril] | inactive: 86.7 | inactive: 90.4 |
| O=C(Nc1cccc2c(=O)cc(-c3nnn[nH]3)oc12)c1ccc(OCCCCc2ccccc2)cc1 [Pranlukast] | inactive: 92.7 | inactive: 89.2 |
| CC(C)(C)NC[C@H](O)COc1nsnc1N1CCOCC1 [Timolol maleate salt] | inactive: 91.2 | inactive: 89.6 |
| CCOC(=O)OC(C)OC(=O)[C@@H]1N2C(=O)[C@@H](NC(=O)[C@H](N)c3ccccc3)[C@H]2SC1(C)C (some centres not stated) [Bacampicillin hydrochloride] | inactive: 88.2 | inactive: 83.6 |
| CCOC(=O)[C@H](CCc1ccccc1)N[C@H]1CCc2ccccc2N(CC(=O)O)C1=O [Benazepril HCl] | inactive: 88.2 | inactive: 86.5 |
| COC1=C(OC)C(=O)C(CCCCCCCCCCO)=C(C)C1=O [Idebenone] | inactive: 88 | inactive: 86.8 |
| O=C1C(CC[S+]([O-])c2ccccc2)C(=O)N(c2ccccc2)N1c1ccccc1 (configuration not stated) [Sulfinpyrazone] | inactive: 98 | inactive: 96 |
| NS(=O)(=O)c1cc2c(cc1Cl)N=C(CSCc1ccccc1)NS2(=O)=O [Benzthiazide] | inactive: 88.6 | inactive: 91.6 |
